The results in this text go back to the supplement of paper PMC11417369.

± gives the standard deviation of the averaged measurements. The list shows a part of the results.

In this experiment the test system is PfAP2-LT AP2 domain (GST-tagged). In words: gcPBM binding intensity (ln(normalized median fluorescence intensity)); higher = stronger DNA binding. The method, boiled down: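 An Agilent 4 × 180k array of primer-extended double-stranded 36-bp intergenic genomic probes, with negative controls, was incubated for 1 h with GST-tagged P. falciparum DNA-binding domains expressed in E. coli. Alexa488 anti-GST antibody detected bound protein, scanned at 488 nm. Binding intensity is the highest Masliner-normalised natural-log median intensity across replicate spots of either probe orientation.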
With “ATAAATTCTATGTATACACACATATATAATATATAT [CACACA_site2689]”, the “gcPBM binding intensity (ln)” value is 9.15 ± 0.35. Consider “AAACAAGTAATTGTTATTATTATTATATTATTATTA [CACACA_negctrl_site402]”, for which the “gcPBM binding intensity (ln)” value worked out at 8.37 ± 0.47. The value for “TATTCCTATATACAGCGTACAAAAAATAATATGTAT [XGTACX_site8112]” was 8.69 ± 0.33. The value for “TATGGAACACACCTTAATATGTGATAAAATATGATA [GTGCAC_negctrl_site718]” was 8.99 ± 0.45; that for “GTTATTAAATAATTCACACACATATATATATATATA [CACACA_site2260]” was 9.74 ± 0.24; that for “AAATATTATGTACGCACACACATTTTTGATATATAA [CACACA_site7755]” was 9.31 ± 0.33.

Regarding “CGCAACGTGAAAATACGTACACATACATTTTTATAT [XGTACX_site330]”, the “gcPBM binding intensity (ln)” value was found to be 8.88 ± 0.39. The value for “TAATCGTTTTATAAATGTACAAAATTGTTATGTTAT [XGTACX_site5147]” was 8.69 ± 0.38; that for “TTAATACATACATTCACACACACTAAATGTATATTT [CACACA_site4105]” was 9.23 ± 0.28. On to GGGGGAAGGTTGAAGGTGCTTGATGGAGAAAAATAT, for which the “gcPBM binding intensity (ln)” value is 9.11 ± 0.13. Turning to “AAAATAGAGTTGAATGCACACATACAAATTTTTAGG [CACACA_site9188]”, the “gcPBM binding intensity (ln)” value is 9.07 ± 0.52.

For the sequence “ATAAATAATTTATTCACACATACAAAAGTTTACAAA [CACACA_site5666]”, the “gcPBM binding intensity (ln)” value was found to be 8.59 ± 0.45. The result for “TTATTAAATTCTTTATTTAGCATATACAATAAAAGA [CACACA_negctrl_site1420]” reads 8.13 ± 0.48; that for “CTAAAAAGAGAAGTGTGTCCTCAAATTAATATAATT [XGTACX_site1057]”, 8.66 ± 0.65; that for “TTTTTTTTTTTTGAAGTGCATGTTACGATGAACAAA [GTGCAC_site9451]”, 8.21 ± 0.39. The result for “TCTTATATAACGAAAGTAAAATAATATGCTAAGCAT [CACACA_negctrl_site668]” reads 8.45 ± 0.4. On to “TATATAAAAATATACACACACAAATGTATTTATATA [CACACA_site4284]”, for which the “gcPBM binding intensity (ln)” value was determined as 9.07 ± 0.43.

For “AATGAATATTAAAGGAGTACACATAATAAGTAAGAA [XGTACX_site7354]”, the “gcPBM binding intensity (ln)” value came to 9.1 ± 0.4. “GAAAAAAAAAAAAATACACACAAATTGGTATAGAAT [CACACA_site380]”: the “gcPBM binding intensity (ln)” value stood at 9.21 ± 0.57. On to GATTATTTCTAAAAAGTGCATATTTAAAAATCTCCT, for which the “gcPBM binding intensity (ln)” value was determined as 8.29 ± 0.43. With “TATTATATTATACATACACACCCATATAATATGTTT [CACACA_site8191]”, the “gcPBM binding intensity (ln)” value is 9.04 ± 0.43. As for “ATTGTTTTGTAATATGAAAAAATTGTGTAATGTGTC [CACACA_negctrl_site1510]”, the “gcPBM binding intensity (ln)” value worked out at 8.72 ± 0.4. Regarding “ATTTATATGAAAATATGTACTTATATAAATTTATTT [XGTACX_site53]”, the “gcPBM binding intensity (ln)” value was 8.54 ± 0.42. The value for “AAAAAATAGAATATGGGTACTAAAAAGATACAAACA [XGTACX_site4464]” was 8.85 ± 0.57. The value for “AAATTCGTAATAATGTGTACATAACTATACATAATT [XGTACX_site1717]” was 8.9 ± 0.42.

Regarding “CACATAAAATAAGGTGCATGCAAACGAGAAAATAAA [TGCATGCA_site75]”, the “gcPBM binding intensity (ln)” value stood at 9.56 ± 0.45.

As for “AAGATTAAACATTGCACACAAAAACATATTTTCTAT [CACACA_site530]”, the “gcPBM binding intensity (ln)” value came out at 9.07 ± 0.4. The value for “AATAAATATATTAAAAGTACACAAATATTATTTAAT [XGTACX_site2482]” was 8.72 ± 0.42; that for “AAAAAAAATATATTACAAAACTTAGGATCCTAATAT [CACACA_negctrl_site470]” was 8.56 ± 0.51; that for “ATATATATATAATAATGTACTTATAATAGATGTGTA [XGTACX_site4677]” was 8.76 ± 0.31. The result for “TAATAAAAAGTTGAGGTGCATATAGAGTTCTTCTTT [GTGCAC_site9508]” reads 8.71 ± 0.46. As to “ATTATAATATTTAATTGTACTTGTATTTATTCCAAA [XGTACX_site6417]”, the “gcPBM binding intensity (ln)” value stood at 8.59 ± 0.45. Take ATATTTTATATAATAGTGCAAATAATATTAAATAAT: the “gcPBM binding intensity (ln)” value is 8.61 ± 0.47. The result for “TGCCCTTTGGTTATAACACACATGCACCCGTAAATA [CACACA_site3842]” reads 9.04 ± 0.38; that for “CAAAGGAAACCTATCTGTACACATATTGGGGGAAAA [XGTACX_site3502]”, 9.075 ± 0.064. As for “AGAAGATTAAACATTGCACACAAAAACATATTTTCT [CACACA_site8072]”, the “gcPBM binding intensity (ln)” value amounted to 8.96 ± 0.45. The result for “AATATATAAGCTGTTCTATTCAAGAATTATATCTTA [CACACA_negctrl_site270]” reads 8.53 ± 0.29; that for “CGTAAACGATATAAATGTACGAATATCTATATATTA [XGTACX_site8116]”, 8.69 ± 0.51. Turning to “TATATATTGCCCTTCACACACACACCGATATATATA [CACACA_site5390]”, the “gcPBM binding intensity (ln)” value was 9.69 ± 0.29.

“GAACGATATATTATATGTACATATATATATATATAT [XGTACX_site394]”: the “gcPBM binding intensity (ln)” value worked out at 9.73 ± 0.33. Take TCGTTTCATAATATTGTGCACATATATATTTACAAT: the “gcPBM binding intensity (ln)” value amounted to 9.05 ± 0.4.

In the case of “TATTTCATCTTTTAAGAAGGTACCCATATGTCATAT [GTGCAC_negctrl_site403]”, the “gcPBM binding intensity (ln)” value was 8.78 ± 0.45.

As for “AAAAATATAACCGTTACACACAAAATAATATGAGAA [CACACA_site3773]”, the “gcPBM binding intensity (ln)” value was 9.14 ± 0.46. For the sequence “ATATATATATATATTTGTACTTACATTTTTATTTAT [XGTACX_site4551]”, the “gcPBM binding intensity (ln)” value was determined as 9.41 ± 0.16.
